Reference: paper PMC3261159
No constants are given. Whether binding was seen depends on the method and setting. Binding seen in cells or lysates may run through a third protein. Some results given as binding are weak or reduced against the parent protein; the word gives no strength. Values belong to the molecule of their own block, whether it stands above or below them.

By UniProt entry, the sequences of proteins in these tests, tags left out. Where a name states a change or a piece, a line headed by the entry shows the natural chain unless it says otherwise. Chains listed by the source or under a name are the forms on record and can include a tag or linker.
UniProt P40763: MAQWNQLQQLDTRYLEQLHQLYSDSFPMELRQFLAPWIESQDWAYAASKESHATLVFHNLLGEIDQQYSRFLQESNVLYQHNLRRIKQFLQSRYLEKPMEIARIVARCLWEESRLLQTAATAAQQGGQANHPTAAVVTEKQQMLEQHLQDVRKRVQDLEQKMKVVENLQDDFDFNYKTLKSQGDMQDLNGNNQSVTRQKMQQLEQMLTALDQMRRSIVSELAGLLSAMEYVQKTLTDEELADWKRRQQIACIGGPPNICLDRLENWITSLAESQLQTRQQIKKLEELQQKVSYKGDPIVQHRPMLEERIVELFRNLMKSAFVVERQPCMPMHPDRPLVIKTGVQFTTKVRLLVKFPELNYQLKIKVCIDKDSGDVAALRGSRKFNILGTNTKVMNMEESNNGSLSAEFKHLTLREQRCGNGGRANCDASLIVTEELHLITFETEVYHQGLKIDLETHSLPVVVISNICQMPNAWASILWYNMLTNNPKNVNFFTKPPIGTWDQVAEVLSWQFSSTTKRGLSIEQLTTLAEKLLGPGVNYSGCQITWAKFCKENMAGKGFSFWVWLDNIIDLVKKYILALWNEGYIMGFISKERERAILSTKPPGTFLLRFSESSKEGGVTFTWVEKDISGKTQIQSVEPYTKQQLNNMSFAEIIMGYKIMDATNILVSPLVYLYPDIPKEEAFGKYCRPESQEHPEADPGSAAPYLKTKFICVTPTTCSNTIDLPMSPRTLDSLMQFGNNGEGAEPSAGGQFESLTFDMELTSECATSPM
myc-Stat3 (688–770) S727A (P40763, form named): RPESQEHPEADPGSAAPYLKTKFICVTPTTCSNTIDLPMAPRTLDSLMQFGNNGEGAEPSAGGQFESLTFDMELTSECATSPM
UniProt P63104: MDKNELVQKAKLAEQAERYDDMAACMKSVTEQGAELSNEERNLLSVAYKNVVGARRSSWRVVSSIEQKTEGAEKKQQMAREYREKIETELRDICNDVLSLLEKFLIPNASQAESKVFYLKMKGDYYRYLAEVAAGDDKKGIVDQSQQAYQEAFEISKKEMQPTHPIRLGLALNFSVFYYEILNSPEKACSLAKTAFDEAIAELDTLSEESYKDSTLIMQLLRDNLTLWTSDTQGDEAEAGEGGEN
UniProt P31946: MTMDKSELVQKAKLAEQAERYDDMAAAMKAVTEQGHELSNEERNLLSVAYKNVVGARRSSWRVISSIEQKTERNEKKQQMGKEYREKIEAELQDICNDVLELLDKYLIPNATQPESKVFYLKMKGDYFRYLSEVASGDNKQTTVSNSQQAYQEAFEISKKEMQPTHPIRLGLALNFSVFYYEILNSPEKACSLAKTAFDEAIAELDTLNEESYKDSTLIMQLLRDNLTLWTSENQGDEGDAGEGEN
UniProt P62258: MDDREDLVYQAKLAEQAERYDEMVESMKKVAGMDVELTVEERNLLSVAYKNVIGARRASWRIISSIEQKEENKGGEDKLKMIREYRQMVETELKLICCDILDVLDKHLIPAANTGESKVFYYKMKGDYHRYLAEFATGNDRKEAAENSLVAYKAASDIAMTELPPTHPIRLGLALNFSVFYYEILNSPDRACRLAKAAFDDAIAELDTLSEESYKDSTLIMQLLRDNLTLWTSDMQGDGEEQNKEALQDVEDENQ

What was measured:
Myc-Stat3 (human) = Myc-Stat3 (human) (UniProt P40763); test: co-IP; U266 cells transfected with Myc-Stat3; lysate in phosphatase assay buffer A (50 mM Tris-Cl pH 7.5, 150 mM NaCl, 1 mM EDTA, 0.25% Nonidet P-40); immunoprecipitate analysed by Western blot (sample of the R18 competition)
[1] = target: signal transducers and activators of transcription 3 (Stat3) (human (endogenous in U266)) (UniProt P40763); test: co-IP; endogenous proteins in U266 cell lysate; IP with 14-3-3 isoform specific antibodies or Stat3 antibody overnight at 4°C, Protein A/G Plus beads; lysis buffer 150 mM NaCl, 10 mM HEPES pH 7.5, 0.2% Nonidet P-40; Western blot
HA-14-3-3ζ (human) = HA-14-3-3ζ (human) (UniProt P63104); test: co-IP; U266 cells transfected with Myc-Stat3 constructs and HA-14-3-3ζ; anti-HA immunoprecipitates analysed by Western blot with Myc antibody
[2] = target: 14-3-3β (human (endogenous in U266)) (UniProt P31946); test: co-IP; endogenous proteins in U266 cell lysate; IP with 14-3-3 isoform specific antibodies or Stat3 antibody overnight at 4°C, Protein A/G Plus beads; lysis buffer 150 mM NaCl, 10 mM HEPES pH 7.5, 0.2% Nonidet P-40; Western blot
[3] = target: T1, 14-3-3γ (human (endogenous in U266)) (UniProt P61981); test: as above
T1 sequence: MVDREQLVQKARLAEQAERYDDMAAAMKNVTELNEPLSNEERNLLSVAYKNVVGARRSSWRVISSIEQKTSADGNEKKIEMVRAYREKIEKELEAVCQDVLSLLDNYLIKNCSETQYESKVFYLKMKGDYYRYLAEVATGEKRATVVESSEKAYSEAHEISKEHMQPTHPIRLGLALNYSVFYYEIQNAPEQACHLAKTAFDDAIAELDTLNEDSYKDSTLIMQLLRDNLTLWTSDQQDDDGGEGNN

[4] = target: T2, 14-3-3η (human (endogenous in U266)) (UniProt Q04917); test: as above
T2 sequence: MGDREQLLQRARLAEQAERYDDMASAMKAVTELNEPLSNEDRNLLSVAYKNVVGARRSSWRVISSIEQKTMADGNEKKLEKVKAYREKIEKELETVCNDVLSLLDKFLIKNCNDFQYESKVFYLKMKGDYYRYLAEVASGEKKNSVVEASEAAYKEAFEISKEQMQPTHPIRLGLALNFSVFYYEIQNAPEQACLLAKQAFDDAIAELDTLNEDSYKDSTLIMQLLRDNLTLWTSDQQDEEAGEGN

[5] = target: 14-3-3ε (human (endogenous in U266)) (UniProt P62258); test: as above
[6] = target: T3, 14-3-3θ (human (endogenous in U266)) (UniProt P27348); test: as above
T3 sequence: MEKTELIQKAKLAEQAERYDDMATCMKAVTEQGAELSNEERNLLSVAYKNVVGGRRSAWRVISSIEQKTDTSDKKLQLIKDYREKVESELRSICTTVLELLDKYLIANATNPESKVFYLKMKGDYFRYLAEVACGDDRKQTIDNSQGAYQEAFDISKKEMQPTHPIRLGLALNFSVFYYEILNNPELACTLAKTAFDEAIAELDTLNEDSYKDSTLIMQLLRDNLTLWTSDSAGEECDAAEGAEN

[7] = target: 14-3-3ζ (human (endogenous in U266)) (UniProt P63104); test: as above
[8] = target: 14-3-3ζ (human (endogenous in U266)) (UniProt P63104); test: co-IP; competition: immunoprecipitate of the 14-3-3ζ/Myc-Stat3 complex from U266 lysate incubated with various concentrations of R18 peptide for 60 min on ice; Western blot; only the binder purified

Molecule: Myc-Stat3 (1–465) (from UniProt P40763 1-465) (domain or fragment)
binding (HA-14-3-3ζ (human)): no binding

Molecule: Myc-Stat3 (1–585) (from UniProt P40763 1-585) (domain or fragment)
binding (HA-14-3-3ζ (human)): no binding

Molecule: Myc-Stat3 (1–688) (from UniProt P40763 1-688) (domain or fragment)
binding (HA-14-3-3ζ (human)): no binding

Molecule: signal transducers and activators of transcription 3 (Stat3) (from UniProt P40763 1-770)
binding [2]: binds
binding [3]: binds weakly
binding [4]: no binding
binding [5]: binds weakly
binding [6]: binds weakly
binding [7]: binds

Molecule: PHCVPRDLSWLDLEANMCLP [R18 peptide]
binding [8]: binds

More lines, now with the values ahead:

binding (Myc-Stat3 (human)): binds
binding [1]: binds
Molecule: 14-3-3ζ (from UniProt P63104 1-245)

binding (HA-14-3-3ζ (human)): no binding
Molecule: Myc-Stat3 (1–130) (from UniProt P40763 1-130) (domain or fragment)

binding (HA-14-3-3ζ (human)): no binding
Molecule: Myc-Stat3 (1–320) (from UniProt P40763 1-320) (domain or fragment)

binding (HA-14-3-3ζ (human)): binds
Molecule: myc-Stat3 (688–770) (from UniProt P40763 688-770) (domain or fragment)

binding (HA-14-3-3ζ (human)): no binding
Molecule: myc-Stat3 (688–770) S727A (from UniProt P40763 688-770) (domain or fragment)
